Assay results: the supplement of paper PMC4604168 (melanoma cell lines)
Some of the results follow. Single values are uncertain, as repeats are few or missing.

Tests used:
Experiment in all cases: cell count relative to DMSO control; melanoma cells; higher = more viable cells
Details in all cases: library dose: low library concentration; 72 h
MZ2-MEL = system: MZ2-MEL
MeWo = system: MeWo
RPMI7951 = system: RPMI7951
RVH-421 = system: RVH-421
SkMel28 = system: SkMel28
SkMel2 = system: SkMel2
SkMel30 = system: SkMel30
SkMel5 = system: SkMel5
UACC257 = system: UACC257
UACC62 = system: UACC62
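Note: cell number obtained by counting DAPI-stained nuclei in high-throughput microscope images with image analysis software, screen run in 1,536-well plates.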

| SMILES | cell count (MZ2-MEL) [%] | cell count (MeWo) [%] | cell count (RPMI7951) [%] | cell count (RVH-421) [%] | cell count (SkMel28) [%] | cell count (SkMel2) [%] | cell count (SkMel30) [%] | cell count (SkMel5) [%] | cell count (UACC257) [%] | cell count (UACC62) [%] |
| --- | --- | --- | --- | --- | --- | --- | --- | --- | --- | --- |
| CC(=O)c1c(C)c2cnc(Nc3ccc(N4CCNCC4)cn3)nc2n(C2CCCC2)c1=O [palbociclib] + C=CCn1c(=O)c2cnc(Nc3ccc(N4CCN(C)CC4)cc3)nc2n1-c1cccc(C(C)(C)O)n1 [MK1775] (first compound 0.04 µM, partner dose 0.02 µM) | 71.6 | 84.1 | 68.2 | 98 | 78.6 | 69.4 | 53 | 64.8 | 62.5 | 69.1 |
| Nc1ncn([C@H]2C[C@H](O)[C@@H](CO)O2)c(=O)n1 [decitabine] + CN(C)S(=O)(=O)c1ccc2c(c1)/C(=C/c1cc3c([nH]1)CCCC3)C(=O)N2 [SU6656] (first compound 0.1 µM, partner dose 0.4 µM) | 90 | 91.1 | 82.8 | 81.9 | 89.5 | 97.9 | 107 | 103 | 99.8 | 80.7 |
| Nc1ncn([C@H]2C[C@H](O)[C@@H](CO)O2)c(=O)n1 [decitabine] + COc1cc2c(Oc3ccc4[nH]c(C)cc4c3F)ncnc2cc1OCCCN1CCCC1 [cediranib] (first compound 0.1 µM, partner dose 0.4 µM) | 87.6 | 105 | 94.3 | 110 | 94.2 | 105 | 103 | 96.6 | 101 | 84.7 |
| Nc1nc(F)nc2c1ncn2[C@@H]1O[C@H](CO)[C@@H](O)[C@@H]1O [fludarabine] + CN(NC(=O)CC(=O)NN(C)C(=S)c1ccccc1)C(=S)c1ccccc1 [STA4783] (first compound 0.2 µM, partner dose 0.006 µM) | 93.3 | 24.3 | 101 | 86.4 | 93.1 | 4.29 | 19.8 | 59.2 | 88 | 74.1 |
| Nc1ccn([C@@H]2O[C@H](CO)[C@@H](O)C2(F)F)c(=O)n1 [gemcitabine] + N#Cc1c(O)c2c(-c3ccc(-c4ccccc4O)cc3)csc2[nH]c1=O [A769662] (first compound 0.0004 µM, partner dose 2 µM) | 93.6 | 103 | 91.2 | 91.6 | 92.8 | 99.9 | 109 | 116 | 103 | 107 |
| CC(=O)c1c(C)c2cnc(Nc3ccc(N4CCNCC4)cn3)nc2n(C2CCCC2)c1=O [palbociclib] + N#Cc1c(O)c2c(-c3ccc(-c4ccccc4O)cc3)csc2[nH]c1=O [A769662] (first compound 0.04 µM, partner dose 2 µM) | 77.8 | 70.3 | 77.6 | 67.4 | 64.9 | 86.5 | 61.8 | 72.3 | 76.5 | 76.4 |
| Nc1nc(F)nc2c1ncn2[C@@H]1O[C@H](CO)[C@@H](O)[C@@H]1O [fludarabine] + CN(C)S(=O)(=O)c1ccc2c(c1)/C(=C/c1cc3c([nH]1)CCCC3)C(=O)N2 [SU6656] (first compound 0.2 µM, partner dose 0.4 µM) | 99.2 | 36.2 | 121 | 100 | 67.6 | 6.43 | 14.7 | 59.9 | 94.4 | 90.5 |
| Nc1ncn([C@H]2C[C@H](O)[C@@H](CO)O2)c(=O)n1 [decitabine] + CC(C)CCN1c2nc(Nc3cc(F)c(O)c(F)c3)ncc2N(C)C(=O)C1C [BID1870] (first compound 0.1 µM, partner dose 0.2 µM) | 101 | 104 | 88.5 | 76.3 | 65.9 | 106 | 101 | 107 | 117 | 72.1 |
| Nc1ccn([C@@H]2O[C@H](CO)[C@@H](O)C2(F)F)c(=O)n1 [gemcitabine] + COc1cc2ncnc(Nc3ccc(Oc4ccccc4)cc3)c2cc1OC [SrcI1] (first compound 0.0004 µM, partner dose 2 µM) | 94.5 | 96.7 | 128 | 95.9 | 76.7 | 96.2 | 106 | 107 | 111 | 102 |
| Nc1nc(F)nc2c1ncn2[C@@H]1O[C@H](CO)[C@@H](O)[C@@H]1O [fludarabine] + CCN(CC)CCCCNc1ncc2cc(-c3cc(OC)cc(OC)c3)c(NC(=O)NC(C)(C)C)nc2n1 [PD173074] (first compound 0.2 µM, partner dose 0.1 µM) | 98.4 | 24.5 | 101 | 103 | 83.2 | 3.76 | 19.7 | 55.2 | 107 | 76.5 |
